# Measured values published in PubChem BioAssay AID686978 (National Center for Advancing Translational Sciences (NCATS), 2013).
# About 64,000 (15%) of roughly 420,000 compounds were called active. Inconclusive means that the source gave no clear call. Such entries were picked first, then a sample of the others. Calls follow the shape of the dose curve; as a rule, active = well fitted inhibition curve with a large enough effect; inconclusive = small, poorly fitted or top-dose-only effect; inactive = flat fitted curve, though single readings scatter. No potency is given beside an inconclusive call; the fits are too rough.
# Assay: qHTS for Inhibitors of human tyrosyl-DNA phosphodiesterase 1 (TDP1): qHTS in cells in absence of CPT; also: nearly all actives have a fitted effect of over 55% in size
# Conditions: DT40 Tdp1-/- hTDP1 cells, no CPT, ATP luminescence, 48 h; activity change, negative = growth inhibition: at 46.2 µM (top of the series) unless noted
# Method in brief: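 Luminescent ATP content (CellTiter-Glo) served as the growth readout. Knockout chicken DT40 cells expressing human TDP1 were exposed to compounds without camptothecin for a minimum 48 hr at 37 °C.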
# % is scaled to controls: 0 for no effect and ±100 for the full control effect; potency is read from the fitted curve at half-maximal effect; tags tell the direction and shape of the fitted curve.
Compound,Potency,"activity change, negative = growth inhibition"
O=c1[nH]c(CN2CCN(S(=O)(=O)/C=C/c3ccccc3)CC2)nc2cc(Cl)ccc12,"inconclusive [inhibitor, single point]",–
CC(C)(C)c1ccc(Nc2n[nH]c3ccccc23)cc1,"inconclusive [inhibitor, single point]",–
Cc1cccc(CN2CCN(Cc3ccc4nonc4c3)CC2CCO)n1 (stereo not drawn),–,inactive: -0.387%
Cc1cc(C)nc(-n2nc(C)c3c2NC(=O)CC3c2cccc(O)c2)n1 (stereo not drawn),"inconclusive [inhibitor, single point]",–
COc1ccc2cc(C(c3nnnn3C3CCCCC3)N3CCCCCC3)c3nnnn3c2c1 (stereo not drawn),"inconclusive [inhibitor, single point]",–
COc1ccccc1C(=O)COC(=O)c1cc([N+](=O)[O-])ccc1N1CCOCC1,"inconclusive [inhibitor, single point]",–
CCNC(=S)N/N=C(\C)c1cc2ccccc2o1,"inconclusive [inhibitor, single point]",–
CC1CC(C)CN(C(=O)C(C)N2CCN(S(=O)(=O)c3ccc(Br)s3)CC2)C1 (stereo not drawn),"inconclusive [inhibitor, single point]",–
Cc1ccc(C)c2[nH]c(=O)c(CCNC(=O)c3cc4ccccc4o3)cc12,active: 20.6 µM,–
CC(=O)N1CCC(C(=O)N2c3ccccc3N=C(c3ccc(C(F)(F)F)cc3)C2C(=O)NC(C)(C)C)CC1 (stereo not drawn),"inconclusive [inhibitor, single point]",–
Cc1ccc(/C=N/NC(=O)CSc2nnc(-c3ccc(Cl)cc3)n2-c2ccccc2)o1,"inconclusive [inhibitor, single point]",–
CCOc1cc2c(cc1OCC)C(CC(=O)O)N(C(=O)Nc1ccccc1C(F)(F)F)CC2 (stereo not drawn),"inconclusive [inhibitor, single point]",–
COc1ccc(-n2nnc3c(=O)n(CC(=O)Nc4cc(C)on4)cnc32)cc1,–,inactive: -8.11%
COC(=O)C1CCN(Cc2ccc3c(c2)CN(C(=O)c2cc4ccccc4n2C)CCO3)CC1,"inconclusive [inhibitor, single point]",–
COC(=O)CSC1=NS(=O)(=O)c2ccccc21,active: 2.31 µM,–
Nc1nnnn1/N=C/c1cccc(OCc2ccccc2Cl)c1,"inconclusive [inhibitor, partial curve]",–
CCN(CC)S(=O)(=O)c1cccc(NC(=O)CNc2cccc(S(=O)(=O)N3CCCC3)c2)c1,active: 1.16 µM,–
Cc1noc(C)c1C(=O)Nc1nc(-c2ccc(F)c(F)c2)cs1,–,inactive: -29.2%
